Experiment [1] deals with HSkMC (human skeletal muscle cells). As to the kind of experiment: cytotoxicity call (relative viability < 0.9). As to conditions: 10 µM.
Experiment [2] deals with HepG2. Description: cytotoxicity call (relative viability < 0.9). To be noted: 10 µM.
In experiment [3] the test system is S. aureus RN4220. As to the kind of experiment: growth inhibition call (relative growth <= 0.2). As to conditions: 50 µM.

This is one part of the list.

On to `N#Cc1c(N)nc(SCc2csc(-c3ccc(Cl)cc3)n2)c(C#N)c1-c1ccc(OCCO)cc1`, for which, in experiment [1], the cytotoxicity call is “active”. Further, the cytotoxicity call in experiment [2] was “inactive”. In addition, the growth inhibition call in experiment [3] was “inactive”.
As for `C[C@@H]1CN([C@H](C)CO)C(=O)Cc2cc(NC(=O)Nc3ccc(C(F)(F)F)cc3)ccc2O[C@H]1CN(C)C(=O)Nc1ccccc1`, the cytotoxicity call in experiment [1] and in experiment [2] was “inactive” throughout. For the same compound, in experiment [3], the growth inhibition call was “inactive”.
With `C[C@@H]1CN([C@@H](C)CO)C(=O)c2cc(NC(=O)Nc3ccc4c(c3)OCO4)ccc2O[C@@H](C)CCCCO[C@@H]1CN(C)Cc1ccncc1`, the cytotoxicity call in experiment [1] and in experiment [2] was “inactive” each time. For the same compound, the growth inhibition call in experiment [3] was “inactive”.
Consider `C[C@@H]1CN([C@H](C)CO)C(=O)Cc2cc(NC(=O)Nc3cccc4ccccc34)ccc2O[C@@H]1CN(C)Cc1ccc(C(=O)Nc2ccccc2N)cc1`, for which the cytotoxicity call in experiment [1] and in experiment [2] was “inactive” throughout. The growth inhibition call in experiment [3] was “inactive”.
For `C[C@H]1CN([C@@H](C)CO)C(=O)c2cccc(NC(=O)C3CCCCC3)c2O[C@H]1CN(C)S(=O)(=O)c1cn(C)cn1`, the cytotoxicity call in experiment [1] and in experiment [2] was “inactive” in each case. In addition, in experiment [3], the growth inhibition call was “inactive”.
As for `COc1ccc(CN(C)C[C@H]2OCCCC[C@@H](C)Oc3ccc(NS(=O)(=O)c4ccccc4)cc3C(=O)N([C@@H](C)CO)C[C@H]2C)cc1`, the cytotoxicity call in experiment [1] and in experiment [2] was “inactive” throughout. For the same compound, the growth inhibition call in experiment [3] is “inactive”.
In the case of `Cc1noc(C)c1NC(=O)N(C)C[C@H]1OCCCC[C@@H](C)Oc2ccc(NC(=O)CCC(F)(F)F)cc2C(=O)N([C@@H](C)CO)C[C@H]1C`, the cytotoxicity call in experiment [1] and in experiment [2] was “inactive” in each case. Besides, the growth inhibition call in experiment [3] is “inactive”.
As for `C[C@@H]1CN([C@@H](C)CO)C(=O)c2cc(NC(=O)C3CCCCC3)ccc2O[C@@H](C)CCCCO[C@H]1CN(C)Cc1ccc(Cl)c(Cl)c1`, in experiment [1], the cytotoxicity call was “inactive”. Moreover, in experiment [2], the cytotoxicity call is “active”. Besides, in experiment [3], the growth inhibition call was “inactive”.
For `C[C@@H]1CN([C@@H](C)CO)C(=O)c2cc(NS(=O)(=O)c3ccc(Cl)cc3)ccc2O[C@@H](C)CCCCO[C@@H]1CN(C)Cc1ccccc1`, the cytotoxicity call in experiment [1] is “inactive”. For the same compound, in experiment [2], the cytotoxicity call was “active”. Also, in experiment [3], the growth inhibition call was “inactive”.
For `Cc1c(Br)c(=O)n(C)c(=O)n1C`, the cytotoxicity call in experiment [1] and in experiment [2] was “inactive” each time. Moreover, the growth inhibition call in experiment [3] is “inactive”.
Consider `C[C@H](CO)N1C[C@H](C)[C@H](CN(C)Cc2ccc(Cl)c(Cl)c2)Oc2c(NC(=O)Nc3ccccc3)cccc2C1=O`, for which the cytotoxicity call in experiment [1] and in experiment [2] was “inactive” in each case. Also, the growth inhibition call in experiment [3] is “inactive”.
As to `COc1ccc(S(=O)(=O)N(C)C[C@H]2Oc3ccc(NS(C)(=O)=O)cc3C(=O)N([C@@H](C)CO)C[C@@H]2C)cc1`, the cytotoxicity call in experiment [1] and in experiment [2] was “inactive” throughout. Moreover, in experiment [3], the growth inhibition call was “inactive”.
`CCc1ccc(-c2cc3c(=O)n(CC(=O)NCCN4CCOCC4)nc(C)n3n2)cc1`: the cytotoxicity call in experiment [1] and in experiment [2] was “inactive” each time. In addition, in experiment [3], the growth inhibition call is “inactive”.
As for `CO[C@@H]1CN(C)C(=O)c2ccc(NC(=O)Nc3ccccc3F)cc2OC[C@@H](C)N(Cc2ccccc2C(=O)O)C[C@H]1C`, the cytotoxicity call in experiment [1] and in experiment [2] was “inactive” each time. Besides, the growth inhibition call in experiment [3] was “inactive”.
As to `CC(=O)CNC(=O)Cc1ccccc1`, the cytotoxicity call in experiment [1] and in experiment [2] was “inactive” in each case. Moreover, the growth inhibition call in experiment [3] was “inactive”.
As for `CCOC(=O)N(C)C[C@H]1OCc2cnnn2CCCC(=O)N([C@@H](C)CO)C[C@@H]1C`, the cytotoxicity call in experiment [1] and in experiment [2] was “inactive” in each case. Moreover, the growth inhibition call in experiment [3] is “inactive”.
Consider `COc1ccc(NC(=O)N(C)C[C@@H]2OCCCC[C@H](C)Oc3ccc(NC(=O)Cc4ccccc4)cc3C(=O)N([C@@H](C)CO)C[C@@H]2C)cc1`, for which the cytotoxicity call in experiment [1] and in experiment [2] was “inactive” in each case. In addition, the growth inhibition call in experiment [3] was “inactive”.
As for `Cc1ccc(NC(=O)C[C@@H](N)C(=O)O)cc1`, the cytotoxicity call in experiment [1] and in experiment [2] was “inactive” throughout. Further, in experiment [3], the growth inhibition call was “inactive”.
Turning to `O=C(O)C12C3CCC4C5C3C1C5(C(=O)O)C42` (centres undefined), the cytotoxicity call in experiment [1] and in experiment [2] was “inactive” each time. Besides, the growth inhibition call in experiment [3] was “inactive”.
In the case of `C[C@@H]1CN([C@H](C)CO)C(=O)Cc2cc(NC(=O)C3CCCCC3)ccc2O[C@@H]1CN(C)C(=O)Nc1cccc2ccccc12`, the cytotoxicity call in experiment [1] and in experiment [2] was “inactive” each time. In addition, the growth inhibition call in experiment [3] was “inactive”.
Consider `CO[C@H](C(=O)[C@@H](O)[C@@H](C)O)[C@@H]1Cc2cc3cc(O[C@H]4C[C@@H](O[C@H]5C[C@@H](O)[C@H](O)[C@@H](C)O5)[C@@H](O)[C@@H](C)O4)c(C)c(O)c3c(O)c2C(=O)[C@H]1O[C@H]1C[C@@H](O[C@H]2C[C@@H](O[C@H]3C[C@](C)(O)[C@H](O)[C@@H](C)O3)[C@H](O)[C@@H](C)O2)[C@H](O)[C@@H](C)O1`, for which the cytotoxicity call in experiment [1] was “inactive”. The cytotoxicity call in experiment [2] was “active”. Also, the growth inhibition call in experiment [3] is “inactive”.
In the case of `CSc1nc(=O)cc(O)[nH]1`, the cytotoxicity call in experiment [1] and in experiment [2] was “inactive” throughout. Also, the growth inhibition call in experiment [3] is “inactive”.
With `CN(C)CCN1CCc2ncc(Cn3cncn3)n2CC1`, the cytotoxicity call in experiment [1] and in experiment [2] was “inactive” in each case. Further, the growth inhibition call in experiment [3] is “inactive”.
Consider `C[C@@H]1CN([C@H](C)CO)C(=O)c2ccccc2-c2ccccc2CO[C@H]1CN(C)C(=O)Nc1ccc(-c2ccccc2)cc1`, for which, in experiment [1], the cytotoxicity call is “inactive”. The cytotoxicity call in experiment [2] was “active”. For the same compound, the growth inhibition call in experiment [3] is “inactive”.
With `Cc1nn(C)c(Cl)c1S(=O)(=O)NC(=O)[C@@]1(C)CCN1C(=O)c1ccccc1CCc1ccccc1`, the cytotoxicity call in experiment [1] and in experiment [2] was “inactive” throughout. Also, the growth inhibition call in experiment [3] is “inactive”.
For `O=C(Nc1cc(C(=O)Nc2ccc(S(=O)(=O)O)cc2S(=O)(=O)O)cc(C(=O)Nc2ccc(S(=O)(=O)O)cc2S(=O)(=O)O)c1)Nc1cc(C(=O)Nc2ccc(S(=O)(=O)O)cc2S(=O)(=O)O)cc(C(=O)Nc2ccc(S(=O)(=O)O)cc2S(=O)(=O)O)c1`, the cytotoxicity call in experiment [1] and in experiment [2] was “inactive” each time. Also, the growth inhibition call in experiment [3] was “inactive”.
Turning to `Cc1nnsc1C(=O)NCC1(CO)CC1`, the cytotoxicity call in experiment [1] and in experiment [2] was “inactive” each time. Besides, in experiment [3], the growth inhibition call is “inactive”.
Regarding `C[C@@H]1CCCCO[C@@H](CN(C)C(=O)Nc2ccc3c(c2)OCO3)[C@H](C)CN([C@H](C)CO)C(=O)c2cc(NS(=O)(=O)c3ccc(F)cc3)ccc2O1`, the cytotoxicity call in experiment [1] and in experiment [2] was “inactive” throughout. In addition, the growth inhibition call in experiment [3] is “inactive”.

For the origin of these results see the antibiotic and cytotoxicity screens of Wong et al. (2023).
